Assay [1] has as its target XRCC6 expressed in E. coli (human) (UniProt P12956). In words: far-Western, overlay or dot blot; XRCC5 and XRCC6 from E. coli particulate fractions resolved by SDS-PAGE, immobilised on nitrocellulose and renatured; probed 2 h at room temperature in HEPES buffer, 150 mM NaCl, 1% non-fat milk with bacterial extracts holding the GST probes; detected with goat anti-GST.
In assay [2] the target is XRCC5 expressed in E. coli (human) (UniProt P13010). The description is as above.

Amino acid sequences for entries named in this document (tags omitted).
UniProt P12956: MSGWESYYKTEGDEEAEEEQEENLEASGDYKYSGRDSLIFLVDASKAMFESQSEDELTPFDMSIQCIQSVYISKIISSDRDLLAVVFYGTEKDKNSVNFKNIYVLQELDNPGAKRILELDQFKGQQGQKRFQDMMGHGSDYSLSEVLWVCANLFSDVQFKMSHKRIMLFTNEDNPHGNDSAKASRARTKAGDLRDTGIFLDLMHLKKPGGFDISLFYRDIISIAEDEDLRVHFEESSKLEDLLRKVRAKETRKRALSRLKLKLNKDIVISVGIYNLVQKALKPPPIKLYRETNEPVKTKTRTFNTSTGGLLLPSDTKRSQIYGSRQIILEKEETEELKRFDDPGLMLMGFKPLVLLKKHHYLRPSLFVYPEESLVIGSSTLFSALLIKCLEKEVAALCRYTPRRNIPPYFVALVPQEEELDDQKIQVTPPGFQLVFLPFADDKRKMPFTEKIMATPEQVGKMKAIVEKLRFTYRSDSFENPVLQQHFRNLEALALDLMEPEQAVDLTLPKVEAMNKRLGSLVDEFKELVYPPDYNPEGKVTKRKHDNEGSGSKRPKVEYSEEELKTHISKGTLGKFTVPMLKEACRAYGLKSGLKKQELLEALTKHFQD
UniProt P13010: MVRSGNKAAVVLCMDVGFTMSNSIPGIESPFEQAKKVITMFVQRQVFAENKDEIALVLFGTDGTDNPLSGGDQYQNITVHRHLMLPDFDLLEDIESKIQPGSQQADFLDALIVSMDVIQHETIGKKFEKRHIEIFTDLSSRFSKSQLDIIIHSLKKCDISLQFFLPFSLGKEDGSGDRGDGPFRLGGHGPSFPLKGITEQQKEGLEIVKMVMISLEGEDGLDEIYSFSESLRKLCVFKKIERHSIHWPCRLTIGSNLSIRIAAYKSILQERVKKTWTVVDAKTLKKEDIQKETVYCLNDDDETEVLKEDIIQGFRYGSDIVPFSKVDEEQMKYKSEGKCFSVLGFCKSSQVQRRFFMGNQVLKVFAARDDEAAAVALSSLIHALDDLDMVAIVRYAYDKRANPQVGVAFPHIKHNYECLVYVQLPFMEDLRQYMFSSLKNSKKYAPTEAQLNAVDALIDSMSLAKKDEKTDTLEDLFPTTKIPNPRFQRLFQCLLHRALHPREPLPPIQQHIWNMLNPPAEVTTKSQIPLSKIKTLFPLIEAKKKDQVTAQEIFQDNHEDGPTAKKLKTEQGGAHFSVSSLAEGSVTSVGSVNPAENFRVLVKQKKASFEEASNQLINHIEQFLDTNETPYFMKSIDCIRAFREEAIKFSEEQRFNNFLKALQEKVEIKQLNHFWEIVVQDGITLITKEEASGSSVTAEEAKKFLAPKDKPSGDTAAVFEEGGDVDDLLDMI

Results are given in words; binding and its absence hold for the method and conditions named. Some results given as binding are weak or reduced against the parent protein; the word gives no strength. Sequences can lack the tags named with a protein.

B1: GST-PHD-NLSR (domain or fragment, UniProt Q9Y2K7 619-733)
chain: TCSLCGEVDQNEETQDFEKKLMECCICNEIVHPGCLQMDGEGLLNEELPNCWECPKCYQEDSSEKAQKRKMEESDEEAVQAKVLRPLRSCDEPLTPPPHSPTSMLQLIHDPVSPR
Regarding B1, the figures for the binding result in assay [1] and in assay [2] were “no binding” and “binds weakly”, respectively.

B2: GST-CXXC-PHD-NLSR (domain or fragment, UniProt Q9Y2K7 561-733)
chain: VSGARRRRVRCRKCKACVQGECGVCHYCRDMKKFGGPGRMKQSCVLRQCLAPRLPHSVTCSLCGEVDQNEETQDFEKKLMECCICNEIVHPGCLQMDGEGLLNEELPNCWECPKCYQEDSSEKAQKRKMEESDEEAVQAKVLRPLRSCDEPLTPPPHSPTSMLQLIHDPVSPR
As for B2, the values for the binding result in assay [1] and in assay [2] were “binds” and “binds weakly”, respectively.

B3: GST-NLSR (domain or fragment, UniProt Q9Y2K7 676-733)
chain: YQEDSSEKAQKRKMEESDEEAVQAKVLRPLRSCDEPLTPPPHSPTSMLQLIHDPVSPR
Take B3: in assay [1], the binding entry is given as “no binding”.

B4: GST-CXXC-NLSR (domain or fragment, UniProt Q9Y2K7 561-619; Q9Y2K7 676-733)
chain: VSGARRRRVRCRKCKACVQGECGVCHYCRDMKKFGGPGRMKQSCVLRQCLAPRLPHSVTYQEDSSEKAQKRKMEESDEEAVQAKVLRPLRSCDEPLTPPPHSPTSMLQLIHDPVSPR
Take B4: the binding result is “binds” in assay [1] and “binds weakly” in assay [2].

The values are drawn from paper PMC6445129.
